Laboratory results: PubChem BioAssay (NCI)
Values joined by “and” are separate entries in the source; they are usually repeats but may differ in a detail not shown here. Equal entries are not always repeated.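 In this assay, cells in 96-well plates receive the compound at five concentrations for 48 hours. Endpoints are linearly interpolated between the surrounding concentrations. GI50 = concentration required for 50% inhibition of growth. Definition used: TGI = concentration required for complete inhibition of growth.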

Each compound was assayed on NCI-H322M lung (assay: growth of human tumour cells (NCI), 48 h).

| SMILES | GI50 | TGI |
| --- | --- | --- |
| CS(=O)c1nccc(-c2c(-c3ccc(F)c(OCCc4ccc(F)cc4)c3)nc3sccn23)n1 (stereo unspecified) | 15 µM | 29.2 µM |
| C#C[C@]1(O)CC[C@H]2[C@@H]3CC=C4c5sc(-c6cccc(O)c6)nc5CC[C@]4(C)[C@H]3CC[C@@]21C | 1.69 µM | 14.4 µM |
| O=C(NNc1nc2cc(F)c(F)cc2n2cccc12)c1cccnn1 | 0.237 µM and 0.213 µM | 30 µM and 37.1 µM |
